Where a name gives a salt, the structure may show the parent alone. ± gives the standard deviation of the averaged measurements. In all, about 2,600 compounds were measured (“MBP+ mature oligodendrocyte number relative to DMSO vehicle control”: median about -0.34, highest 2% from about 13 on). Some of the results follow.
system: jimpy (Plp1 jimpy) mouse iPSC-derived oligodendrocyte progenitor cells; experiment: MBP+ mature oligodendrocyte number relative to DMSO vehicle control (SDs above negative control mean); higher = more surviving jimpy oligodendrocytes (rescue); conditions: 10 µM; 3 days
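Note: 10 µM single dose with 3-day oligodendrocyte differentiation.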

Row | Compound | MBP+ mature oligodendrocyte number
1 | Oc1cc2c(c(Cl)c1O)CCNCC2c1ccccc1 (racemic) [(±)-6-Chloro-PB hydrobromide] | -0.64
2 | CCCn1c(=O)[nH]c(=O)c2[nH]cnc21 [3-n-Propylxanthine] | -0.99
3 | CCOc1nc2cccc(C(=O)OCc3oc(=O)oc3C)c2n1Cc1ccc(-c2ccccc2-c2noc(=O)[nH]2)cc1 [Azilsartan Medoxomil] | 0.819
4 | OC[C@H]1O[C@@H](n2cnc3c(NC4CCCC4)ncnc32)[C@H](O)[C@@H]1O [N6-Cyclopentyladenosine] | -0.865
5 | C[N+](C)(C)CC=O [Betaine aldehyde chloride] | -0.786
6 | C#CCN[C@@H]1CCc2ccccc21 [Rasagiline Mesylate] | -0.0525
7 | Cn1c(=O)[nH]c2ncn(C)c2c1=O [1,7-Dimethylxanthine] | -0.91
8 | COc1cc(OC2CCN(C)CC2)ccc1Nc1ncc2c(n1)n(C1CCCC1)c(=O)n2C | -4.66
9 | C1COC(NC(C2CC2)C2CC2)=N1 [Rilmenidine hemifumarate] | 0.431
10 | COc1ccc(NS(=O)(=O)c2sc3ccc(Cl)cc3c2C)cc1N1CCNCC1 | -4.9
11 | Nc1n[n+]([O-])c2ccccc2[n+]1[O-] [Tirapazamine] | -2.44
12 | CCCN1CCCC[C@H]1C(=O)Nc1c(C)cccc1C [Ropivacaine HCl] | 7
13 | Cc1ccc(S(=O)(=O)N[C@@H](Cc2ccccc2)C(=O)CCl)cc1 [N-p-Tosyl-L-phenylalanine chloromethyl ketone] | 0.289
14 | CC(C)(OCc1nn(Cc2ccccc2)c2ccccc12)C(=O)O [Bindarit] | 1.53
15 | Cc1cccc(-c2[nH]c(C(C)(C)C)nc2-c2ccc3c(c2)OCO3)n1 | < -4.81
16 | CC(NC(=O)c1ccccc1/N=C/c1c(O)ccc2ccccc12)c1ccccc1 (centres undefined) [Sirtinol] | 2.25
17 | CCN(C(=O)c1c(O)c2c(Cl)cccc2n(C)c1=O)c1ccccc1 [Laquinimod] | 1.45
18 | CN1CC(=O)N2[C@H](c3ccc4c(c3)OCO4)c3[nH]c4ccccc4c3C[C@@H]2C1=O [Tadalafil] | 1.42
19 | CC(C)NCC(O)COc1ccc(CCOCC2CC2)cc1 (centres undefined) [Betaxolol hydrochloride] | 0.0385
20 | CC(C)NCC(O)COc1ccc(CCOCC2CC2)cc1 (centres undefined) [Betaxolol] | 9.08
21 | Cc1c(C(=O)NN2CCCCC2)nn(-c2ccc(Cl)cc2Cl)c1-c1ccc(I)cc1 | -5.61
22 | CCc1nc(N)nc(N)c1-c1ccc(Cl)cc1 [Pyrimethamine] | 49
23 | CCN(CC)CCNC(=O)c1cc(Cl)c(N)cc1OC [Metoclopramide hydrochloride] | 0.304
24 | NCCCNCCCCNCCCN [Spermine tetrahydrochloride] | 0.824
25 | CN(C)C/C=C(/c1ccc(Br)cc1)c1cccnc1 [Zimelidine dihydrochloride] | -2.93

Row | Compound | MBP+ mature oligodendrocyte number
26 | CCOc1ccc2ccccc2c1C(=O)N[C@@H]1C(=O)N2[C@@H]1SC(C)(C)[C@@H]2C(=O)O [Nafcillin Sodium] | 5.81
27 | Cn1cnc2c1c(=O)[nH]c(=O)n2C [Theobromine] | 0.416 ± 0.13
28 | CC1=NN(c2ccccc2)C(=O)C1 [Edaravone] | -1.29
29 | O=C(N[C@H](CO)[C@H](O)c1ccc([N+](=O)[O-])cc1)C(Cl)Cl [Chloramphenicol] | -0.287
30 | O=C(O)CCNC(=O)c1ccccc1 [Betamipron] | 0.491
31 | CCC[C@@H]1C[C@@H](C(=O)N[C@@H]([C@H]2O[C@H](SC)[C@H](O)[C@@H](O)[C@H]2O)[C@H](C)Cl)N(C)C1 [Clindamycin HCl] | -0.276
32 | CCC[C@@H]1C[C@@H](C(=O)N[C@@H]([C@H]2O[C@H](SC)[C@H](O)[C@@H](O)[C@H]2O)[C@H](C)Cl)N(C)C1 [Clindamycin] | -1.17
33 | CO[C@H]1/C=C\C=C(/C)C(=O)NC2=CC(=O)C(NCCN(C)C)=C(C[C@@H](C)C[C@H](OC)[C@H](O)[C@@H](C)/C=C(\C)[C@@H]1OC(N)=O)C2=O [17-DMAG (Alvespimycin) HCl] | < -6.7
34 | C=C1/C(=C\C=C2/CCC[C@]3(C)[C@@H]([C@H](C)CCCC(C)C)CC[C@@H]23)C[C@@H](O)C[C@@H]1O [Alfacalcidol] | -6.61
35 | CCN(CC)CCOC(=O)c1cc(Cl)c(N)cc1OC [SDZ-205,557 hydrochloride] | 0.0387
36 | NC/C=C/C(=O)O [(E)-4-amino-2-butenoic acid] | 2.72
37 | CC(=O)N[C@@H](Cc1c[nH]c2ccccc12)C(=O)OCc1cc(C(F)(F)F)cc(C(F)(F)F)c1 | -0.0401
38 | CCN(c1nc(N)c(C(=O)NC(=N)N)nc1Cl)C(C)C [5-(N-Ethyl-N-isopropyl)amiloride] | -1.53
39 | O=C(O)Cc1c[nH]c2ccc(O)cc12 [5-Hydroxyindolacetic acid] | 0.973
40 | CN(C)CCC=C1c2ccccc2COc2ccccc21 [Doxepin hydrochloride] | -3.53
41 | CC(C)[N+](C)(CCOC(=O)C1c2ccccc2Oc2ccccc21)C(C)C [Propantheline bromide] | 5.14
42 | CN1CCC[C@@H]1Cc1c[nH]c2ccc(CCS(=O)(=O)c3ccccc3)cc12 [Eletriptan HBr] | 0.58
43 | CN1CCC[C@@H]1Cc1c[nH]c2ccc(CCS(=O)(=O)c3ccccc3)cc12 [Eletriptan hydrobromide] | 1.13
44 | COc1ccccc1Oc1c(NS(=O)(=O)c2ccc(C(C)(C)C)cc2)nc(-c2ncccn2)nc1OCCO [Bosentan Hydrate] | 0.342
45 | C[S+]([O-])c1ccc(-c2nc(-c3ccc(F)cc3)c(-c3ccncc3)[nH]2)cc1 (centres undefined) | -6.35
46 | O=C(/C=C/c1ccc(O)cc1)CC(=O)/C=C/c1ccc(O)cc1 [Bisdemethoxycurcumin] | 0.659
47 | COc1cc2c(Oc3ccc(NC(=O)C4(C(=O)Nc5ccc(F)cc5)CC4)cc3F)ccnc2cc1OCCCN1CCOCC1 | < -6.7
48 | O.O=[Si]=O.O=[Si]=O.O=[Si]=O.O=[Si]=O.[O]=[Mg].[O]=[Mg].[O]=[Mg] | -1.01
49 | NS(=O)(=O)c1cc2c(cc1Cl)NC(C(Cl)Cl)NS2(=O)=O (centres undefined) [Trichlormethiazide] | -1.46
